The values below come from the RNAGym collection of RNA variant scans (doi:10.7554/elife.90254).

The labels stand for the following.
B1: LINE1-mini (parent)
chain: GGCAGAGCUCAACACAGCGUGGCAAAGUGGCUGUGGCUAGACUGCC

Read counts are not given, so values of variants with three or more changes are uncertain.

The data set covers variants of B1. Kind of data set: self-cleavage, relative activity (ratio to wild type); higher = more cleavage; in vitro, sequencing; the parent is a self-cleaving ribozyme.
Take C10U A26G G44A C45A: the self-cleavage turned out to be 0.04.
Take C10U A25G C37G U43A: the self-cleavage is 0.05.
Then C10G U32A C42U, with 0; and C10U A14G G30C, with 0.26.
Take C10U G29U A41G: the self-cleavage is 0.04.
Turning to C10G U20A U43A, the self-cleavage was 0.
As to C10U G19U A26G U28G, the self-cleavage worked out at 0.18.
C10G U32G G35A: the self-cleavage turned out to be 0.
In the case of C10U A25U G36A, the self-cleavage was determined as 0.03.
Consider C10U G22U G29U, for which the self-cleavage is 0.11.
In the case of C10U A14G G27C, the self-cleavage came to 0.14.
Turning to C10U C23U C37A C45U, the self-cleavage was determined as 0.09.
C10U A12G U43G: the self-cleavage is 0.
C10G U32C G36A: the self-cleavage came out at 0.06.
C10U G19C G21U: the self-cleavage was 0.24.
For C10U A25U C46G, the self-cleavage was determined as 0.24.
With C10U C15G C18A C31G, the self-cleavage was determined as 0.02.
Take C10G U28A U32C C46A: the self-cleavage was determined as 0.
The same measure for C10U G17U G30A C42G: 0.01.
With C10U A11U G35C G40U, the self-cleavage amounted to 0.03.
The same measure for C10U G36U C46U: 0.04; for C10U A16G G17U: 0.14.
Take C10U G22U A25G U38G C46A: the self-cleavage was 0.04.
Turning to C10U C18G A26G G30A, the self-cleavage is 0.33.
For the variant C10U C15G G35U C42U G44C, the self-cleavage stood at 0.03.
Take C10G U28C C42G: the self-cleavage was found to be 0.01.
As for C10U G22U A39G, the self-cleavage came to 0.03.
In the case of C10U A16C C18U G33C C37U U38C A41U C46A, the self-cleavage stood at 0.
As for C10U C31G G40C, the self-cleavage came out at 0.01.
As to C10U G29C G30U, the self-cleavage worked out at 0.04.
For C10U G17C C18A A41G, the self-cleavage worked out at 0.04.
As to C10U G21U G33U G36U C37A, the self-cleavage was determined as 0.06.
C10U A16C U28A G30A C46G: the self-cleavage is 0.
As to C10U U20A G29U C46A, the self-cleavage is 0.07.
C10U G19A G22A: the self-cleavage was determined as 0.82.
As for C10U A14U G22U A25G G33U C45G, the self-cleavage came to 0.01.
For the variant C10U G29U C45U, the self-cleavage is 0.48.
Then C10U C13U G21A, with 0.04; and C10U A24U C45U, with 0.23; and C10U C13A C45U, with 0.06.
Regarding C10U G21C G29A U34G, the self-cleavage turned out to be 0.05.
As to C10G U20A G21C, the self-cleavage was 0.02.
Then C10U G35U U38G C45U, with 0.
For the variant C10U C13G G17C G22U G35A, the self-cleavage was found to be 0.03.
Then C10U C18G G27A U32G, with 0.05.
As for C10U A16U G21C G29U, the self-cleavage stood at 0.95.
Then C10U C13A G30U U43G G44A, with 0.01.
For C10U C23U G44C, the self-cleavage came to 0.07.
Then C10U G17C G19A A39U, with 0.86.
C10U G29U C42G: the self-cleavage worked out at 0.06.
In the case of C10U G21U A26C C31U G40U C42U C46G, the self-cleavage was determined as 0.01.
Consider C10U A12G U28G G40A, for which the self-cleavage came out at 0.03.
As for C10U G29A C31A, the self-cleavage amounted to 0.34.
As to C10U G19A G36A U38A, the self-cleavage was found to be 0.03.
For C10U A25U G27U, the self-cleavage was determined as 0.18.
The same measure for C10U C31U C42G G44U: 0.06.
Regarding C10U C13U C37A C46A, the self-cleavage was found to be 0.07.
Consider C10U G40C G44A, for which the self-cleavage was found to be 0.06.
As for C10U A12U U20G G27A, the self-cleavage is 0.15.
On to C10U A24C G27C G30U G33A, for which the self-cleavage came to 0.03.
For C10U C23U U28C C31G, the self-cleavage came out at 0.23.
As to C10U G17C G19A C37A, the self-cleavage is 0.03.
As to C10U G19A C37G, the self-cleavage was 0.01.
The same measure for C10U C23G A39C: 0.04; for C10U A26C G40U: 0.05.
The same measure for C10U A12G C13G C23A G40A: 0.01.
Then C10U G35A G40U, with 0.02.
Regarding C10U A26C U43C, the self-cleavage turned out to be 0.03.
As for C10U C15U G17A A26C G33C A41C, the self-cleavage amounted to 0.02.
The same measure for C10U C15G C18A G44A: 0.03; for C10U C13U G19C G30U: 0.06.
Regarding C10U C15U A16U C23G A39C, the self-cleavage turned out to be 0.06.
Then C10U G17A C18A G29U, with 1.22.
The same measure for C10U C13U A16G C31U: 0.01; for C10U A26C G33U: 0.13.
Regarding C10U G19U G35C, the self-cleavage was found to be 0.04.
Regarding C10U A16U G19C G35U A39U G44U C45U, the self-cleavage amounted to 0.01.
Turning to C10U C37A C45G, the self-cleavage was found to be 0.
In the case of C10U G29A G33U U38C, the self-cleavage was determined as 0.03.
Turning to C10U A11C U32A, the self-cleavage was determined as 0.01.
Then C10U A11G A12U C23A U34C, with 0.
Regarding C10U G22A G33C, the self-cleavage came out at 0.03.
For C10U G22U A25U G30U, the self-cleavage was determined as 0.6.
Then C10U A14C G22U G27U U38C, with 0.03; and C10U C15U C23A A39U C46A, with 0.7.
Then C10U C23U A24G G29C U32A, with 0.38; and C10U G22U C23U G35C C45A, with 0.01.
Take C10U C13U C46A: the self-cleavage worked out at 0.07.
Then C10U G40A G44U, with 0.02; and C10U C13U G29U, with 0.07; and C10U A16G A24C A26U G40U G44U, with 0.03.
For the variant C10U C13G G30U C31G, the self-cleavage is 0.03.
Then C10G G30U G33U, with 0.04.
Turning to C10U G29C G44U, the self-cleavage was determined as 0.07.
For the variant C10G U38G C45G, the self-cleavage was found to be 0.
In the case of C10U A16G G19U A25C U38A C42A, the self-cleavage was found to be 0.
Turning to C10U G17A G22A, the self-cleavage amounted to 1.06.
Then C10U G19U U43A, with 0.05; and C10U A24C A41G, with 0.01.
As for C10U A11U G21A C31U, the self-cleavage worked out at 0.38.
Take C10U C31G U43C: the self-cleavage is 0.01.
For C10U C15U A16G, the self-cleavage was found to be 0.83.
For C10U A12G C13G G33U C45A, the self-cleavage came to 0.03.
In the case of C10U C18A A26U G33C U34G C37A U43A, the self-cleavage is 0.
As for C10U G22A U34C G40U, the self-cleavage came to 0.01.
The same measure for C10U C13U C37A: 0.01.
As to C10U C15A G30U U34C, the self-cleavage was found to be 0.03.
In the case of C10U G29U C31A G36C, the self-cleavage was 0.06.
On to C10U C45A C46A, for which the self-cleavage came out at 0.06.
With C10U A11C C45U, the self-cleavage stood at 0.06.
Turning to C10U G22U G36C, the self-cleavage was determined as 0.03.
Take C10U A11G A14G C15U U28G C37A: the self-cleavage was determined as 0.01.
Consider C10G U20G G22A C31G, for which the self-cleavage is 0.03.
Then C10U A14U C15G, with 0.1; and C10U A11U C15U G21C, with 0.06; and C10U C13A C15A G33U C37G, with 0.03.
Turning to C10U A24U C31U, the self-cleavage is 0.08.
For the variant C10U C31G C45A, the self-cleavage turned out to be 0.04.
For the variant C10U G17A A24U C31A, the self-cleavage amounted to 0.12.
In the case of C10U C13A U20G G27C G33A G40U, the self-cleavage amounted to 0.01.
Take C10U G40U C46A: the self-cleavage turned out to be 0.03.
In the case of C10U C18U G36A, the self-cleavage was found to be 0.
As to C10U C18G A41C G44C, the self-cleavage was 0.03.
Regarding C10U C13G A14G A41C, the self-cleavage was 0.
Then C10U A14G A25G A26U, with 0.05.
For C10U A25U C42A, the self-cleavage was determined as 0.1.
For C10G G27U U28G G35C C46U, the self-cleavage worked out at 0.01.
With C10U A25U U28A G29C G44A, the self-cleavage came to 0.04.
As to C10G U28C C37U, the self-cleavage stood at 0.01.
For the variant C10U G40U C45G, the self-cleavage worked out at 0.
Consider C10U A14C G40A, for which the self-cleavage was 0.03.
Turning to C10U A16C A41C C45U, the self-cleavage worked out at 0.03.
In the case of C10G G29C A41C, the self-cleavage was determined as 0.01.
The same measure for C10U U20G A41C: 0.04; for C10U A12U C13U C15A A16U G30U: 0.07; for C10U A14U G27C C31A: 0.03.
Take C10U C18A U32C U38A A39U: the self-cleavage amounted to 0.03.
As to C10U A24C G27C C45A C46A, the self-cleavage was 0.05.
On to C10U C13A C15U G33C, for which the self-cleavage is 0.04.
Turning to C10U G22U G44A, the self-cleavage worked out at 0.19.
The same measure for C10U A14G G22U U32A: 0.01; for C10U C15G C23U: 0.09; for C10U A12U A24G U43G: 0.23.
The same measure for C10U C13G A24C C31A: 0.08.
Regarding C10U A41C C45G, the self-cleavage worked out at 0.03.
Then C10U A11C A39G, with 0.01; and C10U G22A A24G G33C C45G, with 0.03; and C10U A11G U38G, with 0.04.
Regarding C10U U20A G40A, the self-cleavage came to 0.01.
On to C10U A26C U32G G35A C45G, for which the self-cleavage is 0.02.
With C10U C13G G36U, the self-cleavage stood at 0.07.
For C10U A16U C18A C23A G27A C37U A41G, the self-cleavage was found to be 0.01.
Consider C10U C18U G21A, for which the self-cleavage was found to be 0.66.
As for C10U A16G G19C U32G A39U, the self-cleavage was found to be 0.03.
Then C10U G21C U43G C46U, with 0; and C10G U32A C46A, with 0.
Then C10U G19U G30C, with 1.12; and C10U A11C C18U, with 0.03; and C10U A25U A41C G44A C45A, with 0.01.
With C10U C18G U20A G33C, the self-cleavage came out at 0.03.
C10U A24G A25C A39U: the self-cleavage was found to be 0.03.
For the variant C10U A24G A25C U28C, the self-cleavage is 0.08.
For C10U A14C A25U C37A, the self-cleavage was 0.06.
On to C10G G30A A39C, for which the self-cleavage is 0.02.
Regarding C10U G35A A39G, the self-cleavage came out at 0.
The same measure for C10U A12G G19A G35U C45U: 0; for C10U A24C A25C: 0.25.
